Test results as given in the supplement of paper PMC10369915.
The other results are listed elsewhere or left out. No stated cut-off is given here; in the data, active = 3.2 or more and inactive = the rest. The signal is at background level for most entries.

biological target: SHP2 C-SH2 domain E139D; assay: enrichment score (SH2-bound / input frequency) (ratio); bacterial display of known human phosphotyrosine sites (pTyr-Var adds point mutants) read by sequencing; higher = stronger binding; tyrosines were phosphorylated by kinases first; conditions: peptide library: pTyr-Var
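Further: displayed peptides selected on beads carrying the immobilized SH2 domain, with library peptides lacking any tyrosine serving as negative controls.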

Binder | enrichment score
NTGDDYDLFGG [PTPN11_Y63_Y62D_YF] | inactive: 0.673
NTGDFCDLFGG [PTPN11_Y63_Y63C_YF] | inactive: 0.959
DYYDLYGGEKF [PTPN11_Y66] | inactive: 1.59
GFFDLYGGEKF [PTPN11_Y66_D61G_YF] | inactive: 1.3
FFFDLYGGEKF [PTPN11_Y66_D61Y_YF] | inactive: 1.81
DYYDLYGGKKF [PTPN11_Y66_E69K] | inactive: 0.836
DFFDLYGGKKF [PTPN11_Y66_E69K_YF] | inactive: 1.11
DYYDLYGGQKF [PTPN11_Y66_E69Q] | inactive: 0.956
DYYDLYGGEKL [PTPN11_Y66_F71L] | inactive: 1.01
DFFDLYGGEKL [PTPN11_Y66_F71L_YF] | inactive: 1.04
DDYDLYGGEKF [PTPN11_Y66_Y62D] | inactive: 0.682
DDFDLYGGEKF [PTPN11_Y66_Y62D_YF] | inactive: 0.773
DYCDLYGGEKF [PTPN11_Y66_Y63C] | inactive: 1.37
AALVQYYMEHH [PTPN11_Y80_E76A] | inactive: 1.49
ADLVQYYMEHH [PTPN11_Y80_E76D] | inactive: 1.33
ADLVQYFMEHH [PTPN11_Y80_E76D_YF] | inactive: 1.18
AKLVQYYMEHH [PTPN11_Y80_E76K] | inactive: 2.35
AKLVQYFMEHH [PTPN11_Y80_E76K_YF] | active: 3.82
AVLVQYYMEHH [PTPN11_Y80_E76V] | active: 3.25

biological target: SHP2 C-SH2 domain wild-type; assay: as above; conditions: peptide library: pTyr-Var

Binder | enrichment score
NTGDDYDLFGG [PTPN11_Y63_Y62D_YF] | inactive: 0.807
NTGDFCDLFGG [PTPN11_Y63_Y63C_YF] | inactive: 1.23
DYYDLYGGEKF [PTPN11_Y66] | inactive: 1.17
GFFDLYGGEKF [PTPN11_Y66_D61G_YF] | inactive: 1.25
FFFDLYGGEKF [PTPN11_Y66_D61Y_YF] | inactive: 1.48
DYYDLYGGKKF [PTPN11_Y66_E69K] | inactive: 0.789
DFFDLYGGKKF [PTPN11_Y66_E69K_YF] | inactive: 0.91
DYYDLYGGQKF [PTPN11_Y66_E69Q] | inactive: 0.664
DYYDLYGGEKL [PTPN11_Y66_F71L] | inactive: 1.03
DFFDLYGGEKL [PTPN11_Y66_F71L_YF] | inactive: 1.04
DDYDLYGGEKF [PTPN11_Y66_Y62D] | inactive: 0.567
DDFDLYGGEKF [PTPN11_Y66_Y62D_YF] | inactive: 0.757
DYCDLYGGEKF [PTPN11_Y66_Y63C] | inactive: 1.31
AALVQYYMEHH [PTPN11_Y80_E76A] | inactive: 1.51
ADLVQYYMEHH [PTPN11_Y80_E76D] | inactive: 1.24
ADLVQYFMEHH [PTPN11_Y80_E76D_YF] | inactive: 1.38
AKLVQYYMEHH [PTPN11_Y80_E76K] | inactive: 2.68
AKLVQYFMEHH [PTPN11_Y80_E76K_YF] | active: 3.53
AVLVQYYMEHH [PTPN11_Y80_E76V] | inactive: 2.61

biological target: SHP2 N-SH2 domain L43F; assay: as above; conditions: peptide library: pTyr-Var

Binder | enrichment score
NTGDDYDLFGG [PTPN11_Y63_Y62D_YF] | inactive: 0.697
NTGDFCDLFGG [PTPN11_Y63_Y63C_YF] | inactive: 1.05
DYYDLYGGEKF [PTPN11_Y66] | inactive: 1.35
GFFDLYGGEKF [PTPN11_Y66_D61G_YF] | inactive: 1.4
FFFDLYGGEKF [PTPN11_Y66_D61Y_YF] | inactive: 2.03
DYYDLYGGKKF [PTPN11_Y66_E69K] | inactive: 0.75
DFFDLYGGKKF [PTPN11_Y66_E69K_YF] | inactive: 0.93
DYYDLYGGQKF [PTPN11_Y66_E69Q] | inactive: 0.826
DYYDLYGGEKL [PTPN11_Y66_F71L] | inactive: 0.848
DFFDLYGGEKL [PTPN11_Y66_F71L_YF] | inactive: 1.03
DDYDLYGGEKF [PTPN11_Y66_Y62D] | inactive: 0.601
DDFDLYGGEKF [PTPN11_Y66_Y62D_YF] | inactive: 1.07
DYCDLYGGEKF [PTPN11_Y66_Y63C] | inactive: 1.16
AALVQYYMEHH [PTPN11_Y80_E76A] | inactive: 2.03
ADLVQYYMEHH [PTPN11_Y80_E76D] | inactive: 1.3
ADLVQYFMEHH [PTPN11_Y80_E76D_YF] | inactive: 1.24
AKLVQYYMEHH [PTPN11_Y80_E76K] | active: 4.58
AKLVQYFMEHH [PTPN11_Y80_E76K_YF] | active: 3.87
AVLVQYYMEHH [PTPN11_Y80_E76V] | inactive: 3.17

biological target: SHP2 N-SH2 domain T42A; assay: as above; conditions: peptide library: pTyr-Var

Binder | enrichment score
NTGDDYDLFGG [PTPN11_Y63_Y62D_YF] | inactive: 0.685
NTGDFCDLFGG [PTPN11_Y63_Y63C_YF] | inactive: 0.863
DYYDLYGGEKF [PTPN11_Y66] | inactive: 1.16
GFFDLYGGEKF [PTPN11_Y66_D61G_YF] | inactive: 1.23
FFFDLYGGEKF [PTPN11_Y66_D61Y_YF] | inactive: 1.77
DYYDLYGGKKF [PTPN11_Y66_E69K] | inactive: 0.858
DFFDLYGGKKF [PTPN11_Y66_E69K_YF] | inactive: 0.949
DYYDLYGGQKF [PTPN11_Y66_E69Q] | inactive: 0.829
DYYDLYGGEKL [PTPN11_Y66_F71L] | inactive: 0.931
DFFDLYGGEKL [PTPN11_Y66_F71L_YF] | inactive: 0.798
DDYDLYGGEKF [PTPN11_Y66_Y62D] | inactive: 0.544
DDFDLYGGEKF [PTPN11_Y66_Y62D_YF] | inactive: 0.612
DYCDLYGGEKF [PTPN11_Y66_Y63C] | inactive: 0.71
AALVQYYMEHH [PTPN11_Y80_E76A] | inactive: 1.17
ADLVQYYMEHH [PTPN11_Y80_E76D] | inactive: 1.04
ADLVQYFMEHH [PTPN11_Y80_E76D_YF] | inactive: 1.22
AKLVQYYMEHH [PTPN11_Y80_E76K] | inactive: 2.3
AKLVQYFMEHH [PTPN11_Y80_E76K_YF] | inactive: 3.02
AVLVQYYMEHH [PTPN11_Y80_E76V] | inactive: 2.6

biological target: SHP2 N-SH2 domain T52S; assay: as above; conditions: peptide library: pTyr-Var

Binder | enrichment score
NTGDDYDLFGG [PTPN11_Y63_Y62D_YF] | inactive: 0.958
NTGDFCDLFGG [PTPN11_Y63_Y63C_YF] | inactive: 1.15
DYYDLYGGEKF [PTPN11_Y66] | inactive: 1.03
GFFDLYGGEKF [PTPN11_Y66_D61G_YF] | inactive: 0.942
FFFDLYGGEKF [PTPN11_Y66_D61Y_YF] | inactive: 1.71
DYYDLYGGKKF [PTPN11_Y66_E69K] | inactive: 0.856
DFFDLYGGKKF [PTPN11_Y66_E69K_YF] | inactive: 1.06
DYYDLYGGQKF [PTPN11_Y66_E69Q] | inactive: 0.924
DYYDLYGGEKL [PTPN11_Y66_F71L] | inactive: 1.04
DFFDLYGGEKL [PTPN11_Y66_F71L_YF] | inactive: 0.947
DDYDLYGGEKF [PTPN11_Y66_Y62D] | inactive: 0.593
DDFDLYGGEKF [PTPN11_Y66_Y62D_YF] | inactive: 0.522
DYCDLYGGEKF [PTPN11_Y66_Y63C] | inactive: 1.21
AALVQYYMEHH [PTPN11_Y80_E76A] | inactive: 1.79
ADLVQYYMEHH [PTPN11_Y80_E76D] | inactive: 1.47
ADLVQYFMEHH [PTPN11_Y80_E76D_YF] | inactive: 1.44
AKLVQYYMEHH [PTPN11_Y80_E76K] | active: 5.5
AKLVQYFMEHH [PTPN11_Y80_E76K_YF] | active: 3.51
AVLVQYYMEHH [PTPN11_Y80_E76V] | active: 3.23

biological target: SHP2 N-SH2 domain wild-type; assay: as above; conditions: peptide library: pTyr-Var

Binder | enrichment score
NTGDDYDLFGG [PTPN11_Y63_Y62D_YF] | inactive: 0.743
NTGDFCDLFGG [PTPN11_Y63_Y63C_YF] | inactive: 1.2
DYYDLYGGEKF [PTPN11_Y66] | inactive: 1.47
GFFDLYGGEKF [PTPN11_Y66_D61G_YF] | inactive: 1.26
FFFDLYGGEKF [PTPN11_Y66_D61Y_YF] | inactive: 1.6
DYYDLYGGKKF [PTPN11_Y66_E69K] | inactive: 0.915
DFFDLYGGKKF [PTPN11_Y66_E69K_YF] | inactive: 1.51
DYYDLYGGQKF [PTPN11_Y66_E69Q] | inactive: 1.13
DYYDLYGGEKL [PTPN11_Y66_F71L] | inactive: 1.01
DFFDLYGGEKL [PTPN11_Y66_F71L_YF] | inactive: 0.839
DDYDLYGGEKF [PTPN11_Y66_Y62D] | inactive: 0.775
DDFDLYGGEKF [PTPN11_Y66_Y62D_YF] | inactive: 0.787
DYCDLYGGEKF [PTPN11_Y66_Y63C] | inactive: 1.24
AALVQYYMEHH [PTPN11_Y80_E76A] | inactive: 1.32
ADLVQYYMEHH [PTPN11_Y80_E76D] | inactive: 1.23
ADLVQYFMEHH [PTPN11_Y80_E76D_YF] | inactive: 1.29
AKLVQYYMEHH [PTPN11_Y80_E76K] | inactive: 2.41
AKLVQYFMEHH [PTPN11_Y80_E76K_YF] | inactive: 3.16
AVLVQYYMEHH [PTPN11_Y80_E76V] | inactive: 2.86
